# The other results are listed elsewhere or left out. One pool of 16,384 single-stranded DNAs met each Rep nickase domain in vitro at 3 µM enzyme and 37 °C for 1 h; the strands have 90 letters, of which the middle is given. Uncut reads are compared with the no-enzyme pool on a log2 scale; uncut sequences lie near 0, cut ones below; no hit call is given. Counts are relative to all reads; uncut strands gain when others are lost, and binding without cutting may add a little.
# Assays:
# Test in all cases: uncleaved DNA left, log2 of reads against the no-enzyme library (log2 ratio); higher = less cleavage (more negative = more Rep cleavage of the k-mer); sequences stand for … in CTCGTCCG…ACCGGAGA
# [1] = system: T1, Rep nickase domain of Muscovy duck circovirus
# T1 sequence (Rep 1-111, printed without the tag): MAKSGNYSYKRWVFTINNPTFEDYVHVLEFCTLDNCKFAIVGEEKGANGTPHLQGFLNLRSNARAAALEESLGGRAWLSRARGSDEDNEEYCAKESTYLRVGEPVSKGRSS
# Procedure: (§1)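 A pool of 90-nt single-stranded DNAs with seven random bases just before the constant AC of the nick site (name = the seven bases) was cut by 3 µM recombinant His6-SUMO-tagged Rep nickase domain (300 nM DNA, 50 mM HEPES pH 8.0, 50 mM NaCl, 1 mM MnCl2, 1 h, 37 °C, three replicates). Uncut DNA was amplified and sequenced.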
# [2] = system: T2, Rep nickase domain of banana bunchy top virus
# T2 sequence (Rep 1-94, printed without the tag): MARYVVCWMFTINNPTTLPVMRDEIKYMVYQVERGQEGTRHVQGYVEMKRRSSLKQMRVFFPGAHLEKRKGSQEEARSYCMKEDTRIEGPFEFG
# Procedure: as §1
# [3] = system: T3, Rep nickase domain of cabbage leaf curl virus
# T3 sequence (Rep 1-116, printed without the tag): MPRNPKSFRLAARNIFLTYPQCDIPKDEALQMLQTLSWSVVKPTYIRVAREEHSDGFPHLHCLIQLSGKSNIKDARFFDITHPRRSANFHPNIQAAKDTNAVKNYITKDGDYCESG
# Procedure: as §1
# [4] = system: T4, Rep nickase domain of chickpea chlorotic dwarf virus
# T4 sequence (Rep 1-124, printed without the tag): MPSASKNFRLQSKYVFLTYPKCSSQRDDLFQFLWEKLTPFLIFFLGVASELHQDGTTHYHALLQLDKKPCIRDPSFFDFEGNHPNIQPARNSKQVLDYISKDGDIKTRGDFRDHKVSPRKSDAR
# Procedure: as §1
# [5] = system: T5, Rep nickase domain of faba bean necrotic yellows virus
# T5 sequence (Rep 1-98, printed without the tag): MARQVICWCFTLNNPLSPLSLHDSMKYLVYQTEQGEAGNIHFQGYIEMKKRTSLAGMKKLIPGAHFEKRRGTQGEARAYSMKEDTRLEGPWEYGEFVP
# Procedure: as §1
# [6] = system: T6, Rep nickase domain of maize striate mosaic virus
# T6 sequence (Rep 1-117, printed without the tag): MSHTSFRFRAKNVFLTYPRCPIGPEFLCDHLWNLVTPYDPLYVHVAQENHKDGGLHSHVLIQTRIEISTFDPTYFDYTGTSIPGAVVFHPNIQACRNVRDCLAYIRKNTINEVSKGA
# Procedure: as §1
# [7] = system: T7, Rep nickase domain of porcine circovirus 2
# T7 sequence (Rep 2-116, printed without the tag): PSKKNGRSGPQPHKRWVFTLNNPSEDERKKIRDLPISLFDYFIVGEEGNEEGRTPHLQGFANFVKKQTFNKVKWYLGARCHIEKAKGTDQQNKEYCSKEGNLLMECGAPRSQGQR
# Procedure: as §1
# [8] = system: T8, Rep nickase domain of tomato golden mosaic virus
# T8 sequence (Rep 1-124, printed without the tag): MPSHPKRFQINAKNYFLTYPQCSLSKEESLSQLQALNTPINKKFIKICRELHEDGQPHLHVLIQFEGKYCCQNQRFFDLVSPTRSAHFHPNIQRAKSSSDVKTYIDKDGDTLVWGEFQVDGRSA
# Procedure: as §1
# [9] = system: T9, Rep nickase domain of tomato yellow leaf curl virus
# T9 sequence (Rep 1-136, printed without the tag): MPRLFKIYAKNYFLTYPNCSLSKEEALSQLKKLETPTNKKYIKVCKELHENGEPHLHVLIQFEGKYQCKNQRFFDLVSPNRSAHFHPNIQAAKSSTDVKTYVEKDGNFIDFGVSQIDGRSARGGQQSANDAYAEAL
# Procedure: as §1
# [10] = system: T10, Rep nickase domain of wheat dwarf virus
# T10 sequence (Rep 1-137, printed without the tag): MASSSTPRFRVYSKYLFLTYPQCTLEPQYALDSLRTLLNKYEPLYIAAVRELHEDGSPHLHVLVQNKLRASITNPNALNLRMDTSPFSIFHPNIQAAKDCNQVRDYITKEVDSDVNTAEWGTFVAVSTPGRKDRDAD
# Procedure: as §1
Sequence,uncleaved DNA left (log2) [1],uncleaved DNA left (log2) [2],uncleaved DNA left (log2) [3],uncleaved DNA left (log2) [4],uncleaved DNA left (log2) [5],uncleaved DNA left (log2) [6],uncleaved DNA left (log2) [7],uncleaved DNA left (log2) [8],uncleaved DNA left (log2) [9],uncleaved DNA left (log2) [10]
GACGACT,0.0156,-0.00122,0.0874,0.407,-0.121,1.58,-0.102,-0.127,-0.0994,0.0153
CTACGCT,0.082,-0.0126,-0.827,-2.34,0.0415,-0.936,-0.192,0.0139,0.0766,-0.356
AATACGA,0.0561,-0.118,0.0116,-0.61,0.0245,-0.91,0.0146,-0.0198,-0.0456,-0.108
CAAAGCA,-0.12,-0.0457,-0.281,-1.22,0.0162,-0.948,-0.119,-0.0549,-0.0958,-0.0824
GATAACT,0.0113,-0.0466,-0.105,-2.39,0.0413,0.616,-0.96,0.125,0.207,0.155
TGTACGT,0.0604,0.0414,0.228,0.3,0.0553,0.262,-0.161,-0.0891,0.107,0.0948
AAGCACC,0.0696,-0.0508,0.0728,-0.227,0.116,-0.247,-0.0385,-0.0124,-0.00696,0.00488
GAAATAA,0.0824,0.139,0.179,0.411,0.0784,0.702,0.118,0.123,0.112,0.128
GTTGCGG,0.0613,-0.00609,-0.339,-0.428,0.0752,-0.4,0.125,0.00697,-0.0234,-0.134
CAACAGA,-0.00747,0.062,-0.205,-1.47,0.0806,-0.828,0.0371,-0.0074,0.0784,0.0641
GATTATC,-0.0681,0.0792,0.279,0.605,0.02,0.89,-0.524,-0.0502,0.172,0.176
TCTTTGG,-0.0818,-0.165,-0.0398,-0.104,-0.0961,-0.588,-0.0851,-0.0174,-0.0771,-0.11
CGGCAGA,0.0882,0.0274,0.173,0.664,0.133,0.658,0.21,-0.0657,-0.0678,0.108
AGCCGCT,0.14,0.113,-0.161,-0.365,-0.00858,-0.133,-0.0902,0.0751,0.0778,-0.0307
AGCCCAG,0.101,0.0615,-0.25,-0.0285,0.018,-0.531,0.184,0.105,0.0887,0.104
AATGCTC,-0.0366,0.0277,-0.108,-0.374,-0.0633,-0.277,-0.051,-0.0197,-0.0987,-0.0513
